# In PubChem BioAssay AID900 (National Center for Advancing Translational Sciences (NCATS), 2007):
# Screen size: about 75,000 compounds; about 20 (0.03%) were called active. The inconclusive results got no clear call from the source; some entries with a clear call stand among them for comparison. Calls follow the shape of the dose curve; as a rule, active = well fitted inhibition curve with a large enough effect; inconclusive = small, poorly fitted or top-dose-only effect; inactive = flat fitted curve, though single readings scatter. A potency beside an inconclusive call is a rough fit, not a confirmed value.
# Target: Caspase-1 (Homo sapiens) (UniProt P29466)
# Test: qHTS Assay for Allosteric/Competitive Inhibitors of Caspase-1;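 as to activity change, negative = inhibition: plate controls were vehicle for no effect and no substrate for full effect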
# Settings: Caspase-1 enzyme, Ac-WEHD-AFC fluorogenic rate; activity change, negative = inhibition: at 57.5 µM (top of the series) unless noted
# Potency is read from the fitted curve at half-maximal effect; tags tell the direction and shape of the fitted curve or compound fluorescence and quenching.
Structure (SMILES),Potency,"activity change, negative = inhibition"
CN1CCN(c2ncc3nc(CCc4ccccc4)c(=O)n(CCc4ccccc4)c3n2)CC1,"inconclusive: 20 µM [inhibitor, single point]",
Clc1nc2ccccc2nc1Cl,,inactive: -1.91%
Cc1ccc(-c2noc(CSc3nnc(-c4ccccc4)n3C)n2)cc1,,inconclusive: -16.2% [inhibitor]
COc1ccc2sc(NC(=O)c3ccco3)nc2c1,,inactive: -1.38%
CC1=C(C(=O)Nc2ccc(F)cc2)C(c2ccncc2)C2=C(CCCC2=O)N1 (stereo unspecified),"inconclusive: 31.6 µM [inhibitor, partial curve]",
C(=Nc1ccc2c(c1)Cc1ccccc1-2)c1ccccn1,,inactive: 0.246% [at 11.5 µM]
O=C(c1ccc(=O)oc1)N1CCCc2ccccc21,"inconclusive: 20 µM [inhibitor, partial curve]",
CNC1=C(Cl)C(=O)c2ccncc2C1=O,"inconclusive: 2.51 µM [inhibitor, full curve]",
Cc1ccc2cc(C#N)c(N3CCCN(C(=O)C4CCCO4)CC3)nc2c1 (stereo unspecified),"inconclusive: 3.16 µM [inhibitor, partial curve]",
Cc1csc2c(C#N)c(=O)c3c(n12)CCC3,,inconclusive: -15.4% [inhibitor]
Cc1ccc(CNc2cc(-c3nn4c(C)nnc4s3)ccc2C)s1,,inconclusive: -17.3% [inhibitor]
CCN(CC)CCn1c(-c2ccccc2)nc2c(N3CCOCC3)nc(C)nc21,"inconclusive: 39.8 µM [inhibitor, single point]",
Cc1ccc(NC(=O)CSc2nnc(-c3ccccc3Br)o2)cc1C,,inactive: -1.47%
N#CC(C(=O)OCc1ccccc1)c1nc2ccccc2nc1N1CCOCC1 (stereo unspecified),"inconclusive: 31.6 µM [inhibitor, partial curve]",
CNc1ccccc1C(C)(C)c1cc(-c2ccco2)n[nH]1,"inconclusive: 25.1 µM [inhibitor, partial curve]",
N#CC1=C(N)N2C(=C(C#N)C13CCN(Cc1ccccc1)CC3)Nc1ccccc12,"inconclusive: 7.94 µM [inhibitor, single point]",
COc1[nH]c(/N=C/c2ccccc2)c(C#N)c1C#N,"inconclusive: 25.1 µM [inhibitor, partial curve]",
CCOc1cc2c(cc1OCC)C(c1cc(OC)c(O)c(OC)c1)NCC2 (stereo unspecified),"inconclusive: 20 µM [inhibitor, partial curve]",
O=C(Nc1c(C(=O)Nc2cccc(F)c2)oc2ccccc12)c1ccc2c(c1)OCO2,"inconclusive: 25.1 µM [inhibitor, single point]",
N#CC1=C(N)SC(N)=C(C#N)C1c1c(Cl)cccc1Cl,"inconclusive: 39.8 µM [inhibitor, partial curve]",
CCOC(=O)N1CCN(c2cc(NCCC(=O)O)c3c4c(onc24)-c2ccccc2C3=O)CC1,"inconclusive: 39.8 µM [inhibitor, single point]",
Cc1nn2c(c1-c1ccccc1)NC1=C(C(=O)CCC1)C2c1cccnc1 (stereo unspecified),,inactive: 4.46%
ON=C1CCCCC1,"inconclusive: 39.8 µM [inhibitor, single point]",
O=C(O)c1ccc(Cl)cc1Cl,"inconclusive: 39.8 µM [inhibitor, single point]",

Structure (SMILES),Potency,"activity change, negative = inhibition"
O=c1c(-c2ccc(F)cc2)nc2cnc(Oc3ccccc3)nc2n1C1CC1,,inconclusive: -18.8% [inhibitor]
CN(C)CC[C@H](c1ccc(Br)cc1)c1ccccn1,inactive,
COC(=O)c1ccc(C(NC(=O)OCc2ccccc2)/C(=C/[C@@H](C)C(=O)N(C)Cc2cccnc2)c2cccnc2)cc1 (stereo partly specified),,inactive: 2%
COC(=O)c1cc(=O)c(O)c2c(O)c(O)ccc2c1,"inconclusive: 25.1 µM [inhibitor, partial curve]",
CCOC(=O)OCC1OC(C#Cc2ccccc2)C=CC1OC(=O)OCC (stereo unspecified),,inconclusive: -16.6% [inhibitor] [at 11.5 µM]
CCOc1ccc(OCc2ccc(C(=O)Nc3ccc(Cl)cn3)o2)cc1,"inconclusive: 31.6 µM [inhibitor, partial curve]",
Nc1ccc(C2CCCc3nonc32)c2nonc12 (stereo unspecified),,inconclusive: -15.2% [inhibitor]
COc1ccc(/C=C/C(=O)c2cccs2)c(OC)c1,"inconclusive: 39.8 µM [inhibitor, partial curve]",
COc1ccc(Cn2nnnc2C(c2ccc(N(C)C)cc2)N2CCC(C)CC2)cc1 (stereo unspecified),"inconclusive: 39.8 µM [inhibitor, single point]",
N#CC(C(=O)OC1CCCCC1)c1nc2ccccc2nc1N1CCCCC1 (stereo unspecified),"inconclusive: 25.1 µM [inhibitor, partial curve]",
N#Cc1c(C(F)(F)F)cc(-c2ccccc2)nc1SCc1nc(N)nc(N2CCOCC2)n1,"inconclusive: 3.98 µM [inhibitor, full curve]",
CCC/C=C(\CCC)C(NS(=O)(=O)c1ccc(Cl)cc1)c1ccccc1 (stereo unspecified),,inconclusive: -17% [inhibitor]
CCN1CC2=C(OC(N)=C(C#N)C2c2cccs2)/C(=C/c2cccs2)C1 (stereo unspecified),,inconclusive: -17.5% [inhibitor]
COC(=O)c1ccc(C2C3=C(Nc4nnnn42)c2ccccc2OC3)cc1 (stereo unspecified),"inconclusive: 31.6 µM [inhibitor, partial curve]",
CC(=O)O[C@@H]1[C@H]([N+]2(C)CCCCC2)C[C@@H]2[C@@H]3CC[C@@H]4C[C@@H](OC(C)=O)[C@H]([N+]5(C)CCCCC5)C[C@@]4(C)[C@H]3CC[C@]21C,,inactive: 2.4%
Cn1c(CN2CCCC2)nc2cc(NC(=O)COc3ccc(Cl)cc3)ccc21,,inactive: -1.93%
C[C@@H](NC(=O)C1(N)CCCC1)C(=O)O,,inactive: -0.75% [at 11.5 µM]
CN1CCc2c(sc(NC(=O)c3ccc(S(=O)(=O)N4CCOCC4)cc3)c2C(N)=O)C1,,inconclusive: -15.7% [inhibitor]
Cc1c(-c2nn(C)c(=O)c3ccccc23)oc2ccc(F)cc2c1=O,,inconclusive: -16.4% [inhibitor]
COCCn1c(=O)c(-c2ccc(Cl)cc2)nc2cncnc21,"inconclusive: 20 µM [inhibitor, partial curve]",
CC(C)(C)NC(=O)Cn1nnc(-c2cccs2)n1,"inconclusive: 12.6 µM [inhibitor, partial curve]",
O=[N+]([O-])c1cc(Cc2cc([N+](=O)[O-])c3cccnc3c2O)c(O)c2ncccc12,"inconclusive: 5.01 µM [inhibitor, single point]",
C/C=C/C1Oc2ccc(OC)cc2N2C(=O)C(C)C(OCOC)C12 (stereo unspecified),"inconclusive: 7.94 µM [inhibitor, single point]",
O=C1Nc2ccccc2C1(O)Cc1ccncc1 (stereo unspecified),,inactive: -1.33%

Structure (SMILES),Potency,"activity change, negative = inhibition"
O=C(NC1CCCCC1)n1c(=O)oc2cc(S(=O)(=O)N3CCCCC3)ccc21,"inconclusive: 25.1 µM [inhibitor, single point]",
CCOC(=O)C1=C(C)NC2=C(C(=O)CC(C)(C)C2)C1c1ccc2c(c1)CCCN2C (stereo unspecified),"inconclusive: 20 µM [inhibitor, partial curve]",
Cc1nc2cnc(N(C)C)nc2n(C[C@H]2CCCO2)c1=O,"inconclusive: 25.1 µM [fluorescent, partial curve]",
CC(Sc1ncc(C#N)c(N)n1)C(=O)Nc1ccccc1 (stereo unspecified),,inactive: -1.84%
COc1ccccc1N1CCN(S(=O)(=O)c2ccc3c4c(cccc24)C(=O)N3C)CC1,,inactive: -9.3%
CCC1c2ccc(C)n2CCN1C(=O)Nc1ccc(F)cc1 (stereo unspecified),"inconclusive: 25.1 µM [inhibitor, partial curve]",
CCn1ncc(C2=NOC(C(=O)Nc3c(C)nn(Cc4ccc(F)cc4)c3C)C2)c1C (stereo unspecified),,inconclusive: -15.7% [inhibitor]
O=C1CCCCC1Sc1nnc(Cc2cccs2)n1CCc1ccccc1 (stereo unspecified),,inactive: 0.0028%
c1ccc2nc3c(nc2c1)[nH]c1ccccc13,"inconclusive: 31.6 µM [inhibitor, partial curve]",
CCn1c(C)c2c(C)nnc(C)c2c1C,"inconclusive: 31.6 µM [inhibitor, partial curve]",
CN1CCN(c2ncc3ncc(=O)n(Cc4ccc(F)cc4)c3n2)CC1,,inconclusive: -16.7% [inhibitor]
CCC(=O)Nc1nonc1-c1nc2ccccc2n1CC(C)C,,inactive: -0.676%
C=CCOC(=O)C(C#N)c1nc2ccccc2nc1N1CCN(Cc2ccccc2)CC1 (stereo unspecified),"inconclusive: 25.1 µM [inhibitor, partial curve]",
CC(C)NC(=O)c1nc2ccccc2s1,"inconclusive: 31.6 µM [inhibitor, single point]",
COc1cc(C2CC(=O)c3c([nH]c(C(=O)OCCOC(C)C)c3C)C2)cc(OC)c1OC (stereo unspecified),,inactive: 1.35%
FC(F)(F)c1cc(NC(=S)N2c3ccccc3-n3cccc3[C@H]2c2cccnc2)cc(C(F)(F)F)c1,"inconclusive: 3.98 µM [inhibitor, partial curve]",
CCOC(=O)c1cn(-c2ccccc2)nc1-c1cccnc1,,inactive: -1.34%
COc1cccc(C(=O)/C=C/Nc2cc(C)ccc2O)c1,"inconclusive: 31.6 µM [inhibitor, partial curve]",
Cc1cccc(-n2cnc3c(c2=O)c2nc4ccccc4nc2n3Cc2ccco2)c1,"inconclusive: 39.8 µM [inhibitor, single point]",
COc1ccc(NCc2nnc(SCC(=O)Nc3cccc(C)c3)o2)cc1,,inactive: 0.312%
CCCn1c(O)c(CN2CCCC(C)C2)c(C)c(C#N)c1=O (stereo unspecified),,inconclusive: -17.1% [inhibitor]
O=c1c(-c2ccc(F)cc2)nc2cnc(Oc3ccccc3)nc2n1Cc1cccs1,"inconclusive: 25.1 µM [inhibitor, partial curve]",
O=C(CN1CCN(c2nc(-c3ccc(Cl)cc3)cs2)CC1)NCc1ccco1,"inconclusive: 39.8 µM [inhibitor, single point]",
